Among the data in PubChem BioAssay AID488969 (Vanderbilt High Throughput Screening Facility, 2010) are z-score values, retold here.

In all, about 110,000 compounds were measured (“z-score”: median about -0.1, highest 2% from about 2 on). This is one part of the list.

The target in the experiment is Metabotropic glutamate receptor 8 (Rattus norvegicus) (UniProt P70579). Briefly: mGluR8 Gi/Go-coupled signaling modulation – cell-based, rat, thallium flux, HTS, primary screen (AID 488969). To be noted: HEK293 rat mGluR8, GIRK (G protein-gated inwardly rectifying potassium channel) thallium flux, FluoZin2; at 10 µM; stronger effect = higher value; submaximal glutamate (EC20) added with thallium.
UniProt P70579, sequence (P70579 whole entry, looked up): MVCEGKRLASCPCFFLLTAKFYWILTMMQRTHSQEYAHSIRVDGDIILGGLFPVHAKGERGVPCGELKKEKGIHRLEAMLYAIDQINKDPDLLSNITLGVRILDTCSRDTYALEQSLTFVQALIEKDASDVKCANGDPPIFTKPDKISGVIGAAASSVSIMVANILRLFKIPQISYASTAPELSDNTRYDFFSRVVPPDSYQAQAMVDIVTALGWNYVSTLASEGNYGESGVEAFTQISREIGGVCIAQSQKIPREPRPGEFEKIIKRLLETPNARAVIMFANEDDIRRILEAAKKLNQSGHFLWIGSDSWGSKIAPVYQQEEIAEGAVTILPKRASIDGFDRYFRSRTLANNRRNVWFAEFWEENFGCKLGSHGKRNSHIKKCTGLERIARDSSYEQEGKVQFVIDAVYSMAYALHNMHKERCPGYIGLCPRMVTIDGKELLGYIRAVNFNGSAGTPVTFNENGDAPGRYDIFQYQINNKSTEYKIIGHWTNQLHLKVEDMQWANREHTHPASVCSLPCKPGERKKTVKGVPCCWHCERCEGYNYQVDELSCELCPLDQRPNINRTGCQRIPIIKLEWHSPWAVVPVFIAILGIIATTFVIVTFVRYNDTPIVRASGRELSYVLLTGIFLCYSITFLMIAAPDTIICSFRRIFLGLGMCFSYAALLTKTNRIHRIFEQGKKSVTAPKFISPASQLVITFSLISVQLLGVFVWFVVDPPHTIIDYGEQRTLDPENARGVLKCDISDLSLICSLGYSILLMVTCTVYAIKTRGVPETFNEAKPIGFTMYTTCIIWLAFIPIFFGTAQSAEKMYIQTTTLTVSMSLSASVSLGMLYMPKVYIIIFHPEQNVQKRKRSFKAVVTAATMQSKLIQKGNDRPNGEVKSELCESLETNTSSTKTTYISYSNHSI
Compound `CCOC(=O)CSc1nnc(-c2ccccc2)c(=O)[nH]1` registered a z-score of -0.438.
For `Cc1sc2ncnc(N[C@@H](CCC(=O)O)C(=O)O)c2c1C` the value was 0.408; for `N#CC1=C(N)Oc2cc(N)ccc2C1c1ccsc1` (stereo not drawn), -2.64; for `Cc1ccc([N+](=O)[O-])cc1N=C(c1cccc(Br)c1)N1CCOCC1`, -0.401.
For `CC1=CC(C)C2(CO)COC(c3cccnc3)C1C2C` (stereo not drawn) the value was -0.00616; for `CCN(CC)CCN1C(=O)Cn2c(C)c(C)c3cccc1c32`, 0.718.
For `CC(=O)N(C)c1ccc(NC(=S)Nc2ccccc2)cc1` the value was -0.008; for `Cc1c(CN(C)C(=O)c2ccc(Br)o2)cnn1C`, 0.01; for `CC(C(=O)NC1CCCC1)N(C(=O)CS(=O)CC(=O)Nc1ccc(F)cc1)c1ccc2c(c1)OCCO2` (stereo not drawn), -0.0988.
Consider `Cc1cc(C(=O)N/N=C\c2ccc(COc3ccc([N+](=O)[O-])cc3)o2)ccc1[N+](=O)[O-]`, for which the z-score was -0.167.
In the case of `Cc1ccc(S(=O)(=O)Nc2ccc(S(=O)(=O)Nc3ncccn3)cc2)cc1`, the z-score is -0.379.
With `CCOC(=O)c1ccc(N2C(=O)CC(NC3CCN(C(=O)c4ccc(F)cc4)CC3)C2=O)cc1` (stereo not drawn) the figure was -0.0183; with `Cc1cc(-c2n[nH]c(=S)n2/N=C/c2ccc(C)s2)n[nH]1`, -0.0648; with `COc1ccc(CCNC2CC(=O)N(CCc3ccc(OC)c(OC)c3)C2=O)cc1` (stereo not drawn), 0.274.
With `COc1ccccc1/C=C/C=C1\Oc2c(ccc(O)c2CN2CCN(CCO)CC2)C1=O` the figure was -1.5; with `O=C(O)[C@H](CSCc1ccccc1)NS(=O)(=O)c1ccc(F)cc1`, -0.283; with `CNC(=S)N/N=C(\C)c1ccc(N2CCOCC2)cc1`, 0.456.
With `CCCc1cc(=O)n2[nH]c(-c3ccccc3)cc2n1` the figure was 0.844; with `O=C(OCc1nc2ccccc2s1)[C@@H]1CCCN1S(=O)(=O)c1ccccc1F`, -0.557; with `COc1ccc(C(C(=O)NC2CCCC2)N(C(=O)c2snc(-c3ccc(F)cc3)c2N)c2ccc(F)cc2)cc1` (stereo not drawn), 0.297.
In turn, `Cc1nn(-c2ccc(C(=O)O)cc2)c(N)c1-c1ccccc1` gave a z-score of 1.39.
Consider `N#C/C(=C\c1cccs1)C(=O)NCc1ccccc1`, for which the z-score came out at 0.407.
On to `COc1ccc(CN(C)c2ncnc(N)n2)cc1`, for which the z-score amounted to 0.445.
`Cc1cc(C)cc(NC(=S)N2CCN(c3ncccn3)CC2)c1` displayed a z-score of 0.098.
With `O=C(Nc1nc2c(s1)CCCC2)Oc1ccccc1` the figure was -0.198.
`Cc1cc(=O)oc(C)c1C(=O)NCc1ccco1` showed a z-score of -0.0307.
With `COc1ccc(-c2cc(-c3ccccc3)nc(-c3ccc4c(c3)NC(=O)CO4)c2)cc1` the figure was -0.0947; with `C=CCNC(=O)C(C)N1C(=O)c2ccccc2C1=O` (stereo not drawn), 0.26.
With `O=C(NC(NC(=S)Nc1ccccc1C(=O)O)C(Cl)(Cl)Cl)c1cccc([N+](=O)[O-])c1` (stereo not drawn) the figure was -0.0684; with `O=C1NC(c2cccs2)Nc2ccccc21` (stereo not drawn), -0.413.
With `Cc1ccc(S(=O)(=O)NC(CC(C)C)C(=O)Oc2ccc3c4c(c(=O)oc3c2)CCC4)cc1` (stereo not drawn) the figure was 0.186.
For the compound `CN(C)CC(O)COc1ccc(-c2ccc(C#N)cc2)cc1` (stereo not drawn), the z-score stood at 2.48.
On to `Cc1ccc(NC(=O)COc2ccc(/C=C3/SC(=Nc4ccccc4)N(Cc4cccnc4)C3=O)cc2)cc1`, for which the z-score is -0.121.
`O=C(NCc1ccccn1)c1ccc(N2CCCC2=O)cc1` had a z-score of -0.553.
For `Cc1ccc(S(=O)(=O)N(C)CCCC(=O)Nc2ccncc2)cc1` the value was 0.255; for `O=C(NNCC(O)COc1ccccc1)c1ccccc1` (stereo not drawn), 0.0495; for `O=C1CC(c2ccco2)CC2=C1C(c1ccccc1)n1nc(C(F)(F)F)nc1N2` (stereo not drawn), -0.367.
In turn, `NC(=O)c1ccc(OCC(F)(F)C(F)(F)C(F)(F)C(F)(F)C(F)(F)C(F)F)cc1` had a z-score of 0.969.
For `COc1ccc(C(=O)CC(Nc2ccc([N+](=O)[O-])cc2)c2ccc(OC)cc2)cc1` (stereo not drawn) the value was -0.119; for `C/C(N)=C(/C#N)C(=O)CSc1nnc(-c2ccc3c(c2)OCO3)o1`, -0.316.
For `CCOC(=O)N1CCC(N2Cc3cccc(C(=O)NC(C)c4ccc5c(c4)OCCO5)c3C2=O)CC1` (stereo not drawn) the value was -0.941; for `CC[C@@H](C(=O)n1nc(C)cc1C)[C@H](NS(=O)(=O)c1ccc(C)cc1)c1ccccc1`, -0.105.
`O=C(CSc1nnc2n(C3CCCC3)c(=O)c3ccccc3n12)N1CCCCCC1`: the z-score was determined as 0.0381.
`Cc1nn(Cc2ccccc2Cl)c(C)c1NC(=O)c1nc2ncccn2n1`: the z-score is -0.269.
The compound `CCc1nnc(NC(=O)c2cc(-c3ccccc3)nn2-c2ccccc2)s1` returned a z-score of 0.27.
`CSc1nc(-c2ccccc2)nc(N2CCCC2)c1C(C)=O` displayed a z-score of -0.0558.
`COc1ccc(N(CC(=O)NCc2ccco2)S(=O)(=O)c2c(C)nn(C)c2C)cc1`: the z-score was -0.0923.
Take `CCOC(=O)COc1ccc(S(=O)(=O)NCc2cccnc2)cc1`: the z-score came out at 0.014.
With `CCNC(=O)c1sc(-c2ccccc2)nc1C` the figure was -0.491.
`CC(OC(=O)C1=Cc2ccccc2OC1)C(=O)NC1CCCC1` (stereo not drawn): the z-score is -0.171.
The compound `CCn1c(SCC(=O)N2CCCc3ccccc32)nc2ccccc2c1=O` returned a z-score of -1.52.
For `O=C1Nc2ccccc2C12NCCc1c2[nH]c2ccccc12` (stereo not drawn) the value was -0.534; for `Cc1c(Cl)cccc1NC(=O)C1NC(=O)CC1c1ccccc1` (stereo not drawn), -0.0859.
For `CC1(C)C(c2cccs2)=NC(c2ccccc2)N1O` (stereo not drawn), the z-score is -0.0214.
For `COc1cccc(NC(=S)/C(=C(\[O-])c2ccc(C)c([N+](=O)[O-])c2)[n+]2ccccc2)c1` the value was 0.00281; for `Cc1ccc(NC(=O)Cn2nc(-c3ccccc3)nc2-c2ccccc2)c(C)c1`, -0.261; for `O=C(Cn1nnc(-c2ccccc2)n1)Nc1ccc2c(c1)OCO2`, 0.199.
For `COc1ccc(NC(=O)c2ccco2)cc1NC(=O)c1cccc(OC(C)C)c1` the value was -1.75.
In turn, `O=C(NNS(=O)(=O)c1cc(Cl)cc(Cl)c1)c1sccc1-n1cccc1` showed a z-score of 1.93.
For `Cc1ccc(S(=O)(=O)N(C)CC(=O)O/N=C(\N)c2ccccn2)cc1` the value was -0.423; for `Fc1ccccc1-c1csc(=Nc2cccnc2)n1CCCn1ccnc1`, -1.73.
For `CS(=O)(=O)N(Cc1nnc(-c2cccs2)o1)c1ccc(Cl)cc1F` the value was -0.694; for `CCOc1ccc(S(=O)(=O)n2nnc3ccccc32)cc1C`, -0.695.
For `COC(=O)[C@H](CCSC)NC(=O)Nc1ccc(OC)cc1OC` the value was -0.209; for `COc1ccc(-c2cc(C(F)(F)F)nc(SCCC(=O)N3CCN4CCCC4C3)n2)cc1` (stereo not drawn), 0.152.
Regarding `O=C(CCC(=O)c1ccc(F)cc1)Nc1cccnc1`, the z-score turned out to be 0.386.
The compound `Clc1cccc(Cl)c1-c1nnc2ccc(N3CCOCC3)nn12` showed a z-score of -1.29.
`O=C(COC(=O)COc1ccc(Br)cc1)NCCC1=CCCCC1`: the z-score was -0.252.
